# In the supplement of paper PMC11417369:
# ± gives the standard deviation of the averaged measurements. The list shows a part of the results.
# Tested on: PfAP2-G AP2 domain (GST-tagged)
# Experiment: gcPBM binding intensity (ln(normalized median fluorescence intensity)); higher = stronger DNA binding
# Procedure, shortened: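 Alexa488 anti-GST antibody, scanned at 488 nm, detected GST-tagged P. falciparum DNA-binding domains that had been expressed in E. coli and incubated for 1 h on an Agilent 4 × 180k array. The array carried primer-extended double-stranded 36-bp intergenic genomic probes and negative controls. Binding intensity is the highest Masliner-normalised natural-log median intensity across replicate spots of either orientation of each probe.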
row,Sequence,gcPBM binding intensity (ln)
1,CATGACATATCCTGTAGTACAACGTATATATAAGAT [XGTACX_site2577],11.4 ± 0.72
2,AAAATAAAATCATAAAGTACAAAAAGAAAATAAAAA [XGTACX_site7376],10.8 ± 0.43
3,TATATATGTAGACGTTGTACTTTTTTGTAAGTTTAA [XGTACX_site5638],11.3 ± 0.82
4,AGGAATCTACATATATGTACATATATTGATATATTT [XGTACX_site137],11.1 ± 0.47
5,TTTAATTTTTATATAACACACATATTGTAATTATGT [CACACA_site4566],9.7 ± 0.17
6,ATGTTTAATTAAATATGTACTTATTATATTATATGT [XGTACX_site8137],11.5 ± 1.1
7,TGTGTTAATATGAATTTAAACATAAATAAATAAATA [CACACA_negctrl_site1589],9.685 ± 0.021
8,GAACATTTATTGTGTGTGCACAATTCTTTTTTAACC [GTGCAC_site9697],10.4 ± 0.16
9,TCAATAAATATACATACATGCATACATACATACATA [TGCATGCA_site197],9.91 ± 0.042
10,TCTTTTCTCGGAAGGGTGCAAGGAATTAATGAAATA [GTGCAC_site9706],10.2 ± 0.3
11,AATTTTCAATAGTATACACACAATTATATATATATA [CACACA_site1116],10.2 ± 0.36
12,AATTGAAAAAGAAATTGTACATTTTATTTTTATTAT [XGTACX_site1973],10.9 ± 0.42
13,ATATAATTTATATATTCACACAAGGAATACTTTTAT [CACACA_site5506],10.2 ± 0.28
14,TAGTATAATATGAACACACACACACCGACAAAAAAA [CACACA_site5151],10.5 ± 0.4
15,ATACATATATATATATGTACATATGTATTTTTTATT [XGTACX_site105],11 ± 0.68
16,AATAAAATATATTCCTGTACATATGATTCTTTTTTT [XGTACX_site7980],10.9 ± 0.67
17,TTTACATATTTATATACACACTTTTGCGTGCGTGGT [CACACA_site6647],10.1 ± 0.13
18,ACTATACAGTTATACACACACATATATCTATAATAT [CACACA_site6283],10.18 ± 0.042
19,ATTACAAATACAAACACACAAATGTTTTTCATTCAA [CACACA_site7639],9.8 ± 0.042
20,ATGGAATAATCACGTACACACAAGAAAAAAAAAAAT [CACACA_site527],11.5 ± 1
21,GGATAATATATTAGAACACACATATATATGTAAAAA [CACACA_site185],10.03 ± 0.042
22,AAACAAAAAATAAAATGTACATTTATTACGATAAGT [XGTACX_site2392],11.1 ± 0.57
23,TTTTATTTGACAAGCACACACTTAAATATATATATA [CACACA_site5792],10.2 ± 0.21

row,Sequence,gcPBM binding intensity (ln)
1,ACGAAGTATATGAATACACACATATTTTTAATGAAA [CACACA_site4070],10.1 ± 0.18
2,AGTAAATTTGATGGTCGTACAAAAAAAAAGTAGGAC [XGTACX_site2600],11.5 ± 0.83
3,TTTTTAATCAGAAATATTTATTAAAGAATTTTATAG [GTGCAC_negctrl_site725],9.555 ± 0.092
4,ATATACATAATTTGGAGTACAATATCATATAAATAT [XGTACX_site6334],11.5 ± 0.79
5,GTATAAAATATTTTATGTACATAATATATATATATA [XGTACX_site2489],11.2 ± 0.46
6,AAATAAAGGAAATGTATATCAACATTAAAATAAGGC [CACACA_negctrl_site441],10.05 ± 0.085
7,AATGTACAAATACGTACACACATATATATATATATA [CACACA_site1542],11.6 ± 0.93
8,TTTTACAATAACAATACACACTATAATATGTAAATA [CACACA_site6772],10.03 ± 0.042
9,CATTTAAAATTTGTTTGTACATATATATATATATAT [XGTACX_site6729],11 ± 0.66
10,ATATATATATATATATGTACTTATGTCATCATTAAA [XGTACX_site5316],11.2 ± 0.9
11,TATATGTATGTTTGTGTGCACACATAAATATTATAT,10.6 ± 0.36
12,TATATATATAAAAAAAGTACGTATTTAATAAAAATA [XGTACX_site4992],11.5 ± 0.72
13,GATATTATGTGTTTGGTATTTCGATCTTGTCAGGAC [CACACA_negctrl_site426],10.2 ± 0.12
14,ATTTCTATATATTGTGCATGCCATTACACCAAATAT [TGCATGCA_site813],10.3 ± 0.16
15,TATATATATAAATACACACACACATATATATATATA [CACACA_site4585],10.2 ± 0.28
16,TGTAGTTTTTATTTATGTACGCATAACATAATTTAA [XGTACX_site104],11.6 ± 0.7
17,TCATTTTACAGATGTGCATGTGAATCAATCTATTTA [TGCATGCA_site787],9.74 ± 0.16
18,AATATACAAATTACAAGTACAAATCAATATTATATG [XGTACX_site7521],11 ± 0.58
19,AAAAAAAAAAAAAAAACACACAAACAAATGAATAAA [CACACA_site5769],10.1 ± 0.35
20,GTATATAATTTATATTGTACGCATATTATTATCATT [XGTACX_site7277],11.5 ± 1
21,TATATAAATAAAAAAAGTACATTACTTTTTAATTTA [XGTACX_site285],11.3 ± 0.86
22,ATCATACCTTTTAATGTACACACATTTCTTTTTTGT [CACACA_site8198],11.3 ± 0.6
23,CATACCCATAAACACACACACATATATACCTATATA [CACACA_site4745],9.99 ± 0.11

row,Sequence,gcPBM binding intensity (ln)
1,AGAAAGGATATTATATGTACATATCTTTGTATTTTT [XGTACX_site5040],11.1 ± 0.54
2,TAGTATGATAACTTGGGTACATAAATATGGAGTATC [XGTACX_site1296],11.3 ± 0.74
3,TTTTTAATTCAAAAAACTGTATGTTATATGTCAAAT [CACACA_negctrl_site72],10 ± 0.15
4,TTCATTTTATTTTAAGTGCATATTTTTATTTTTTTG,9.92 ± 0.11
5,AATTTAATATTCATCTCTAAAGCTATAACAATTACT [CACACA_negctrl_site1079],9.76 ± 0.16
6,TCCTTAAAATATGGTTGTACGTACATCCTAGGTGTT [XGTACX_site7068],11.7 ± 0.97
7,TTTTATCAATAAATTCGTACACATGAACTAGAGAGT [XGTACX_site5758],11.4 ± 0.84
8,TACATTCTAATAATTGCACACTGGTTATTAAAAGGA [CACACA_site1614],10 ± 0.11
9,TTTTTATTTATATTTCATTGAAGTTAAATTATTTTA [XGTACX_negctrl_site575],9.66 ± 0.11
10,ATTAGTATATTTCTCTGTACTTACATTAAAATATAA [XGTACX_site2217],11.4 ± 0.95
11,AAATTATTTCAAATGTTGCACTAAAAATAAAATTAT [GTGCAC_site9460],9.915 ± 0.078
12,ATACAAATTTATATTTCACACATTATTATATACTTA [CACACA_site6034],9.79 ± 0.26
13,TCTGAAAATTAGAAAAGTACAAAATGGTATAGGAAA [XGTACX_site4396],11.2 ± 0.64
14,ATATATATATATAAATGTACAGGCTTATCTCTTATT [XGTACX_site1828],10.9 ± 0.8
15,TGTATTATATATGTGTGTACATATTTTTTTTTTTTT [XGTACX_site3351],11.5 ± 1.1
16,CGCACACGCAGACACACACACACATATAAATAAATA [CACACA_site7101],10.2 ± 0.34
17,AAAAAAAAGAAAAAAAAAAAAAAAAAAAAAAAAAAA [CACACA_negctrl_site489],9.69 ± 0.42
18,AATACATGCTAAAAACGTACACGTATAAAATTATAT [XGTACX_site3169],11.4 ± 0.88
19,AAATTATTTCTTTGCGCATGTAGCTTTTATACTATT [TGCATGCA_site819],9.98 ± 0.16
20,ACATAAATAATAAAAACACACATATGTACCTATATA [CACACA_site6982],11.2 ± 0.72
21,AATTTAATATAATGCACACATAAAAAAAAAATCAAA [CACACA_site1],10.1 ± 0.18
22,TTTTTTTTTTTGGCTAGTACATATGTATTTAAAATG [XGTACX_site7770],10.9 ± 0.64
23,GGTGAAATTATTTCTACATGCAGAAATAATTAATTA [TGCATGCA_site194],9.84 ± 0.14

row,Sequence,gcPBM binding intensity (ln)
1,TGTTGTTCCAATTTTTGTACATAAAACATATATATA [XGTACX_site5719],11.1 ± 0.54
2,AAGAAAATATAAAATGCACACTATAAATTGTATATA [CACACA_site7928],9.76 ± 0.3
3,AAAAAAAAAAAAAATTGTACATTAAATTAAAAGAAA [XGTACX_site8708],10.9 ± 0.71
4,AAAAAAAAAAATACTTGTACTTATATAATATATTAT [XGTACX_site8333],11.1 ± 0.75
5,GTAATATTTTATAGTAGTACATATTTTTATTATTTT [XGTACX_site3333],11.4 ± 0.89
6,GAGAGGTCAGTTCACAGTACCCAGAAACTCTACGAG [XGTACX_site2559],11.2 ± 0.91
7,GAGAAAAGGAAATAACGTACACATATGCATATCCAA [XGTACX_site5858],11.3 ± 0.77
8,TATTTATTGTGACACTTTTATTATTTTATGATAAAA [CACACA_negctrl_site37],10.4 ± 0.46
9,GTGTTCTTGTTATACACACACATATATATATATATA [CACACA_site1032],10.4 ± 0.23
10,TGAAAGAAGCATAAATGTACACACATATTTATATAT [XGTACX_site2645],11.1 ± 0.5
11,AATATTTATTTAATTTCACACAGGTCTTTTTTTTTT [CACACA_site5188],9.925 ± 0.035
12,TTGTTCTTATTTCATTTTTATATGATATTTCATTAT [CACACA_negctrl_site1619],10.1 ± 0.11
13,TGAAGAATATTTTTCACACATATATATATATATATA [CACACA_site6080],10 ± 0.54
14,TGAATATATAAATATGCACACTTCTATTATAAATAA [CACACA_site5796],9.94 ± 0.028
15,TAACATATAAGTGTGTGTACGTACTGCGTATAATAT [XGTACX_site8597],11.5 ± 0.81
16,GACAAACAATATGAATGTACATAAAAATATAACTAA [XGTACX_site1167],11.1 ± 0.38
17,ATATATATATATATATGTACATATTTTTGTTTGATG [XGTACX_site51],11.2 ± 0.83
18,CAGATATTCATATAAACACACATACAAATTATGTAT [CACACA_site4258],9.865 ± 0.035
19,TATATATATAATTAAGCATGCTAGAAACCTTTGAAA [TGCATGCA_site489],9.93 ± 0.18
20,TACAATCTAAAATACACACGCACACCGAAAAAAAAA [CACACA_site3520],10.4 ± 0.4
